Experimental data from patent US20240342305A1 (published 2024).

B1: chimeric antigen receptor P7D4-28BBZ (P7D4 scFv-CD28a-CD28b-CD137-CD3 zeta), on T cells (other)
chain: QVQLQESGGGLVQPGRSLRLSCAASGFTFSSYAMHWVRQAPGKGLEWVSAISGSGGSTYYADSVKGRFTISRDNSKNTLYLQMNSLRAEDTAVYYCAKDRRGSHADAFDVWGQGTLVTVSSGGGGSGGGGSGGGGSQSALTQPPSASGSPGQSVTISCTGTSSDVGGYNYVSWYQQYPGKAPKLLIYGNSNRPSGVPDRFSGSKSGTSASLAITGLQAEDGADYYCQSYDSSLRVVFGGGTKVTVLGTTTPAPRPPTPAPTIASQPLSLRPEACRPAAGGAVHTRGLDFACDFWVLVVVGGVLACYSLLVTVAFIIFWVRSKRSRLLHSDYMNMTPRRPGPTRKHYQPYAPPRDFAAYRSKRGRKKLLYIFKQPFMRPVQTTQEEDGCSCRFPEEEEGGCEL[not shown - about 120 residues]
notes: Third generation CAR on human T cells; also called P7D4 scFv-28BBZ
B2: chimeric antigen receptor P7D4-Z (P7D4 scFv-CD8-CD3 zeta), on T cells (other)
chain: QVQLQESGGGLVQPGRSLRLSCAASGFTFSSYAMHWVRQAPGKGLEWVSAISGSGGSTYYADSVKGRFTISRDNSKNTLYLQMNSLRAEDTAVYYCAKDRRGSHADAFDVWGQGTLVTVSSGGGGSGGGGSGGGGSQSALTQPPSASGSPGQSVTISCTGTSSDVGGYNYVSWYQQYPGKAPKLLIYGNSNRPSGVPDRFSGSKSGTSASLAITGLQAEDGADYYCQSYDSSLRVVFGGGTKVTVLGTTTPAPRPPTPAPTIASQPLSLRPEACRPAAGGAVHTRGLDFACDIYIWAPLAGTCGVLLLSLVIT[not shown - about 120 residues]
notes: First generation CAR on human T cells; also called P7D4 scFv-Z
B3: chimeric antigen receptor P7D4-28Z (P7D4 scFv-CD28a-CD28b-CD3 zeta), on T cells (other)
chain: QVQLQESGGGLVQPGRSLRLSCAASGFTFSSYAMHWVRQAPGKGLEWVSAISGSGGSTYYADSVKGRFTISRDNSKNTLYLQMNSLRAEDTAVYYCAKDRRGSHADAFDVWGQGTLVTVSSGGGGSGGGGSGGGGSQSALTQPPSASGSPGQSVTISCTGTSSDVGGYNYVSWYQQYPGKAPKLLIYGNSNRPSGVPDRFSGSKSGTSASLAITGLQAEDGADYYCQSYDSSLRVVFGGGTKVTVLGTTTPAPRPPTPAPTIASQPLSLRPEACRPAAGGAVHTRGLDFACDFWVLVVVGGVLACYSLLVTVAFIIFWVRSKRSRLLHSDYMNMTPRRPGPTRKHYQPYAPPRDFAAYRS[not shown - about 120 residues]
notes: Second generation CAR on human T cells; also called P7D4 scFv-28Z

Columns and labels:
[1] = molecular target: T1, His-tagged human GPC3 recombinant protein (purchased from Shanghai Rui Jin Biotech Co., Ltd.) (human, UniProt P51654 25-559, limits assumed); assay: flow cytometry of CAR T cells stained with His-tagged human GPC3 (50 ug/ml), anti-His-tag antibody and FITC secondary
T1 construct: Bought; construct not described; not shown: His tag
Protocol: Infected CTL cells were detected by flow cytometry on day 8 of culture for the expression of different chimeric antigen receptors. FACS assays were performed using His-tagged human GPC3 recombinant protein (purchased from Shanghai Rui Jin Biotech Co., Ltd.); the cells were firstly incubated with the protein (50 ug/ml) for 1 hr, washed twice with D-PBS, and Anti-His-tag antibody (1:50 dilution, purchased from Shanghai Reagent Biotechnology Co., Ltd.) was added and incubated for 1 hr and then washed twice with D-PBS and then FITC labeled goat anti-mouse secondary antibody (Shanghai Kangcheng Biotechnology Co., Ltd.), incubated for 50 min, washed with D-PBS for three times, and tested by FACS. Uninfected T lymphocytes was used as a negative control, the positive rates of virus-infected T cells expressing different chimeric antigen receptors are shown in Table 4.

[2] = molecular target: GPC3 expressed on hepatoma cells (HepG2, Huh-7, SK-Hep-1 GPC3) (human, UniProt P51654 25-554); assay: cell-based or functional assay

| Binder | Positive rate of T cells transfection [1] [%] | Cytotoxicity (%) on HepG2 cells, effector target ratio 1:1 (LDH release, 18 h) [2] [%] | Cytotoxicity (%) on HepG2 cells, effector target ratio 1:3 (LDH release, 18 h) [2] [%] | Cytotoxicity (%) on HepG2 cells, effector target ratio 3:1 (LDH release, 18 h) [2] [%] | Cytotoxicity (%) on HuH-7 cells, effector target ratio 1:1 (LDH release, 18 h) [2] [%] | Cytotoxicity (%) on HuH-7 cells, effector target ratio 1:3 (LDH release, 18 h) [2] [%] | Cytotoxicity (%) on HuH-7 cells, effector target ratio 3:1 (LDH release, 18 h) [2] [%] |
| --- | --- | --- | --- | --- | --- | --- | --- |
| B1 | 54 | 59.1 | 21.9 | 85.8 | 48.4 | 17.2 | 75.3 |
| B2 | 65 | 25.9 | 7.2 | 48.5 | 20.2 | 5.6 | 42.9 |
| B3 | 61 | 35.6 | 6.5 | 68.2 | 31.3 | 7.8 | 62.4 |
